# This is one part of the list. The full chains were built here from the parent and the listed change. Values near 0.05 are background.
# B1: TEV protease; numbered along this chain (parent)
# chain: MGESLFKGPRDYNPISSSICHLTNESDGHTTSLYGIGFGPFIITNKHLFRRNNGTLVVQSLHGVFKVKDTTTLQQHLVDGRDMIIIRMPKDFPPFPQKLKFREPQREERICLVTTNFQTKSMSSMVSDTSCTFPSGDGIFWKHWIQTKDGQCGSPLVSTRDGFIVGIHSASNFTNTNNYFTSVPKNFMELLTNQEAQQWVSGWRLNADSVLWGGHKVFMVKPEEPFQPVKEATQL
# Variants of: B1
# Experiment: raw area under fraction-flipped curve 0-4 h after induction (AUC4h, not background-subtracted), DNA-recorder readout of cleavage of the substrate (dimensionless); higher = more cleavage of the substrate by the protease variant
# Conditions: temperature: 34 °C; time window: 0-4 h after rhamnose induction
# 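Note: Bxb1 expression induced with 0.2% (w/v) L-rhamnose at OD600 near 0.5, cultures sampled hourly, flipped fraction per protease–substrate barcode pair counted by paired-end Illumina sequencing.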
Variant,area with substrate ENLDFQS,area with substrate ENLFFQS,area with substrate ENLHFQS,area with substrate ENLKFQS,area with substrate ENLNFQS,area with substrate ENLPFQS,area with substrate ENLQFQS,area with substrate ENLRFQS,area with substrate ENLWFQS,area with substrate ENLMFQS
G153F,0.0684,0.0419,0.0515,0.0641,,,,,,
D82V,,0.0574,0.0799,0.0584,0.0132,0.0549,0.0267,0.0701,0.0503,
G2N,,0.0724,,0.099,,,,0.0888,,0.0721
G2A,0.0531,0.0962,0.0628,0.0848,0.0661,,,,0.0978,
G80L,,0.0753,,,,0.0613,0.0761,0.0656,,
S169K,0.0542,0.0591,,0.0546,0.011,0.0547,,,,
R87V,,,0.0597,,0.0701,,,,,0.0599
R87Q,,0.0206,,,,,0.0559,0.0988,,
W199Y,0.0632,0.0648,0.0529,0.0664,,0.0812,0.0684,,0.0706,
T129K,,,0.1,,,0.0662,0.0672,,,0.0876
G138T,,0.0792,,,,,,,,
G138L,,,,,,,0.0425,,,
G138F,,0.0837,,0.0674,,,,,,
A170K,,0.064,0.0885,,,,0.0592,,,
A170S,,0.0673,,,,0.0699,,,,
A170R,,0.0615,0.0584,,,,,,0.0479,
N177Q,,,,,0.0721,0.0625,,,,
S171K,,,,,,,,0.0539,0.0508,
L211I,,,0.0813,0.0842,,,,,,0.0756
T174F,,,0.0657,0.0723,,,0.0639,,,
Q198G,,0.0802,,0.0882,0.0721,0.0498,0.0694,0.0702,,
M83E,,,0.0448,,0.0546,0.051,,0.0679,0.0574,
K230A,,,0.073,,,,0.0836,,0.0607,
G35D,,0.0486,0.0494,,,,0.0252,,,
G35I,,,0.0555,,,,,,,
G35A,0.0531,,,,,0.0615,,,,
F65Q,,,0.0405,0.0795,,,,0.0744,,
F65V,,,0.08,,0.0609,,,0.0666,,
C111A,,0.0971,,,0.0669,,,0.0845,,
E108G,0.0707,,,,,,0.112,,,

# Same assay, conditions: temperature: 34 °C; time window: 0-4 h after rhamnose induction
Variant,area with substrate ENLGFQS,area with substrate ENLLFQS,area with substrate ENLSFQS,area with substrate ENLVFQS,area with substrate ENLEFQS,area with substrate ENLTFQS,area with substrate ENLIFQS
G2A,0.0788,0.073,0.0516,0.111,,,
G80L,0.0504,,0.0496,,,,
S169K,,,,0.0589,,,
R87V,,,,0.0579,0.0029,,
R87Q,,0.0809,0.0487,0.0844,,,
W199Y,0.082,0.073,,,,0.0571,
T129K,0.0714,,0.0898,0.0469,0.0457,,
G138T,,,0.0638,,,,
G138L,,,0.0698,,0.0493,,0.0698
G138F,,0.0796,,,,,0.109
A170K,0.0811,0.0678,0.0569,,,,
A170R,,,,,0.0391,,0.0575
N177Q,,0.0759,0.0794,,,,0.0975
S171K,0.0621,,,,,,
L211I,,,,,0.0665,,
Q198G,,,,0.084,0.0743,,
M83E,0.0465,,0.0518,,,,
K230A,0.052,,,,,,
G35D,0.0322,0.0355,,,,,0.0465
G35I,,,0.0507,,,,
G35A,,,0.0733,,,,0.0569
F65Q,,,0.0666,,,,
F65V,,0.0574,,,,,
C111A,0.0584,,,,0.056,,
E108G,,,,,,0.0671,
